Assay results published in PubChem BioAssay AID686978 (National Center for Advancing Translational Sciences (NCATS), 2013).
The whole screen tested about 420,000 compounds, of which about 64,000 (15%) were called active. The inconclusive results got no clear call from the source; some entries with a clear call stand among them for comparison. Calls follow the shape of the dose curve; as a rule, active = well fitted inhibition curve with a large enough effect; inconclusive = small, poorly fitted or top-dose-only effect; inactive = flat fitted curve, though single readings scatter. No potency is given beside an inconclusive call; the fits are too rough.

Test: qHTS for Inhibitors of human tyrosyl-DNA phosphodiesterase 1 (TDP1): qHTS in cells in absence of CPT; also: nearly all actives have a fitted effect of over 55% in size
Settings: DT40 Tdp1-/- hTDP1 cells, no CPT, ATP luminescence, 48 h; activity change, negative = growth inhibition: at 46.2 µM (top of the series) unless noted
Summary of the method: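 Chicken DT40 Tdp1-/- cells complemented with human TDP1, screened without camptothecin (DMSO vehicle only), 400 cells/well. Compounds pin-transferred, cells incubated at 37 °C for at least 48 hr. Growth read as ATP-dependent luminescence (CellTiter-Glo, 30 min at RT).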
% is scaled to controls: 0 for no effect and ±100 for the full control effect; potency is read from the fitted curve at half-maximal effect; tags tell the direction and shape of the fitted curve.

| Structure (SMILES) | Potency | activity change, negative = growth inhibition |
| --- | --- | --- |
| O=C(Nc1cccnc1Cl)C1c2ccccc2Oc2ccccc21 | inconclusive [inhibitor, single point] | – |
| COc1ccc(O)c(C(=O)c2cc(C(=O)NCCc3ccccc3)c(=O)n(CCc3ccccc3)c2)c1 | active: 14.6 µM | – |
| COc1ccc(S(=O)(=O)N2CCNCC2)cc1 | inactive | – |
| CCOC(=O)[C@]12CCC=C1N(Cc1ccc3c(c1)OCO3)C(=O)[C@H](CC(=O)NCc1ccccc1)C2 | inconclusive [inhibitor, single point] | – |
| Cc1ccc(-c2ccc(/C=N/NC(=O)CN3CCOCC3)o2)cc1[N+](=O)[O-] | inconclusive [inhibitor, single point] | – |
| CC1CCCCC1NC(=S)Nc1cccc(S(=O)(=O)N(C)C)c1 (configuration not stated) | inconclusive [inhibitor, single point] | – |
| O=C(Nc1cccc(-c2cscn2)c1)C1CCN(Cc2ccccn2)CC1 | inconclusive [inhibitor, single point] | – |
| Cc1cccc(C2=NN(c3ccc(Br)cc3)[C@@H](C(=O)N3CCOC3=O)[C@@H]2c2ccccc2)c1 | inconclusive [inhibitor, single point] | – |
| CN1CCN(C(=O)c2cc(Oc3c(F)c(F)c(F)c(F)c3F)cc(C(=O)N3CCN(C)CC3)c2)CC1 | inactive | – |
| Cc1ccc(/C=C/c2onc(C)c2S(=O)(=O)N2CCC(C(=O)Nc3ccc(Br)c(C)c3)CC2)cc1 | inactive | – |
| COC(=O)C1=NN(C(=O)c2ccc(Br)cc2)C(O)(C(C)(C)C)C1 (configuration not stated) | inactive | – |
| COc1ccc(OC(C)C(=O)NCCc2nc3ccccc3[nH]2)cc1 (configuration not stated) | inconclusive [inhibitor, single point] | – |
| O=C(Nc1nc2ccccc2[nH]1)C1CC1 | inconclusive [inhibitor, single point] | – |
| CCC(CC)C(=O)Nc1cc(-c2ccccc2F)nn1-c1ccccc1 | inconclusive [inhibitor, full curve] | – |
| COc1ccc(Cn2c(N)c(C#N)c3nc4ccccc4nc32)cc1OC | inactive | – |
| O=C(CNC(=O)C1CC(=O)N(c2cccc3ccccc23)C1)Nc1ccccc1Br (configuration not stated) | inactive | – |
| COc1cccc(C(=O)COc2ccc(NC(=O)c3ccccc3)cc2)c1 | inconclusive [inhibitor, single point] | – |
| Cc1ccc(C(CCN)c2ccco2)cc1 (configuration not stated) | inconclusive [inhibitor, partial curve] | – |
| Cc1csc2nc(-c3ccc(NS(=O)(=O)c4cc(F)ccc4F)cc3)cn12 | inactive | – |
| O=C(CSc1nccn1-c1cccc(Cl)c1)NC1CCCC1 | active: 20.6 µM | – |
| COc1ccc(/C=N/NC(=O)CN(C2=NS(=O)(=O)c3ccccc32)c2ccccc2)cc1 | inconclusive [inhibitor, partial curve, poor fit] | – |
| c1ccc(COc2cccc(CNCc3cccnc3)c2)cc1 | inconclusive [inhibitor, single point] | – |
| CC(C)N=C(N)N=C(N)Nc1ccc(Cl)cc1 | active: 9.2 µM | – |
| Cc1csc(NC(=O)CSc2nc(=O)[nH]c3c2CCCC3)n1 | inactive | – |

| Structure (SMILES) | Potency | activity change, negative = growth inhibition |
| --- | --- | --- |
| COc1ccc(C2CC(c3ccccc3O)=NN2c2ccccc2)cc1 (configuration not stated) | inactive | – |
| Nc1ccc(S(=O)(=O)c2ccc(N)nc2)cc1 | inactive | – |
| COc1cc2c(C)nc(C)c(C#N)c2cc1OC | inconclusive [inhibitor, single point] | – |
| COC(=O)C1=CN(c2cccc(OCc3ccccc3)c2)C(N)=C(C#N)C1c1cccc(F)c1 (configuration not stated) | active: 23.1 µM | – |
| COc1ccccc1C(=O)Nc1ccc(C(=O)OCc2cc(=O)n3nc(C)sc3n2)cc1 | inconclusive [inhibitor, partial curve] | – |
| Cc1ccc(-c2nn3c(C)nnc3c3ccccc23)cc1S(=O)(=O)NCc1ccco1 | inconclusive [inhibitor, single point] | – |
| OC1(c2cccc(C(F)(F)F)c2)CCN(Cc2nnnn2Cc2ccccc2)CC1 | inconclusive [inhibitor, single point] | – |
| COc1ccc(NC(=O)CCCNS(=O)(=O)c2cccs2)cc1 | inactive | – |
| CC(=O)NC(c1cccc(F)c1)c1nc(/C=C/c2ccccc2)cs1 (configuration not stated) | inactive | – |
| Cc1ccc(CNC(=O)c2nnc(Cc3ccc(Cl)cc3)o2)cc1 | inactive | – |
| COc1ccc(CCN2C(=O)CN(C3CCCCCC3)C(=O)C2c2ccc(OC(C)C)c(OC)c2)cc1OC (configuration not stated) | inconclusive [inhibitor, single point] | – |
| COc1ccc(CCCC(=O)NCCc2ccccc2)cc1 | inactive | – |
| COc1ccc(C2C(C#N)=C(N)N(N(C)C)C3=C2C(=O)CC(C)(C)C3)cc1OC (configuration not stated) | inactive | – |
| COc1cc2nc(CCNCc3ccccc3)nc(NC3CCN(C)CC3)c2cc1OC | active: 5.01 µM | – |
| Cc1ccc(OC(=O)CCNC(=O)c2ccccc2Cl)c(Br)c1 | inactive | – |
| CCCOc1ccc(N)cc1N | active: 4.11 µM | – |
| O=C(NN1C(=O)c2ccccc2NC1c1ccoc1)c1ccccc1 (configuration not stated) | inactive | – |
| Cc1ccc(CNC(=O)CN2C(=O)C3(SCC(=O)N3c3ccc(F)cc3)c3ccccc32)cc1 (configuration not stated) | inconclusive [inhibitor, single point] | – |
| CCCNCC(=O)Nc1sc2c(c1C(=O)Nc1c(C)n(C)n(-c3ccccc3)c1=O)CCCC2 | inactive | – |
| Cc1ccc(NC(=O)Cn2c(-c3cncs3)nc3ccccc32)c(Br)c1 | inconclusive [inhibitor, partial curve] | – |
| COc1ccc(-n2cnc(N)c2C(=O)c2cccc([N+](=O)[O-])c2)cc1 | inconclusive [inhibitor, partial curve] | – |
| CC(=Nc1cccc(C)c1)c1sc2ccccc2c1O | inactive | – |
| O=C(CSc1nc2ccccc2nc1N1CCOCC1)Nc1ccccc1F | inconclusive [inhibitor, single point] | – |
| O=C(CCSc1nc(-c2ccccc2)c(-c2ccccc2)o1)N1CCCCC1 | inconclusive [inhibitor, single point] | – |

| Structure (SMILES) | Potency | activity change, negative = growth inhibition |
| --- | --- | --- |
| O=C(CNC(=O)c1ccco1)N/N=C/c1cc(Br)ccc1O | active: 5.8 µM | – |
| Cc1ccccc1NC(=O)c1nc[nH]c1C(=O)NCc1ccccc1 | inconclusive [inhibitor, single point] | – |
| COc1ccc(CCN(C(=O)C(F)(F)F)C(C(=O)NC2CCCCC2)c2cccs2)cc1 (configuration not stated) | active: 4.61 µM | – |
| COc1ccccc1NS(=O)(=O)c1cc(C(=O)NCC(c2ccco2)N2CCCCC2)ccc1C (configuration not stated) | inconclusive [inhibitor, single point] | – |
| O=C(c1cccc(Br)c1)N1CCCc2ccccc21 | inconclusive [inhibitor, single point] | – |
| Cc1c(NC(=O)CSc2ncnc3c2cnn3-c2ccccc2)c(=O)n(-c2ccccc2)n1C | inconclusive [inhibitor, single point] | – |
| Nc1nonc1-n1nnc(C(=O)N/N=C/c2ccccn2)c1CNc1ccccc1 | inconclusive [inhibitor, single point] | – |
| CCOC(=O)Cc1c(C)nc2cc(-c3ccc(Cl)cc3)[nH]n2c1=O | inactive | – |
| O=C1C=C(c2cccc(Cl)c2O)C[C@@H](c2ccc(Cl)cc2)C1 | inconclusive [inhibitor, single point] | – |
| O[C@H]1CN(Cc2cccs2)[C@@H](c2ccccc2)C[C@@H]1n1cc(-c2ccc(F)cc2)nn1 | inconclusive [inhibitor, single point] | – |
| CCOc1ccc(S(=O)(=O)N2CCN(c3ccc(OC)cc3)CC2)c2cccnc12 | inactive | – |
| Cc1ccc(CNC(=O)C(=O)NCCC2=CCCCC2)cc1 | inconclusive [inhibitor, single point] | – |
| COc1ccc(CNC(=O)CN2C(=O)CC(c3ccccc3)=Nc3ccccc32)cc1 | – | inconclusive: -33.1% [inhibitor] |
| CC1CN(C(=O)N2CCC(C(=O)NCCCc3ccccc3)CC2)c2ccccc2O1 (configuration not stated) | inconclusive [inhibitor, single point] | – |
| COc1ccc2c(c1)Cc1sc(NC(=O)c3cccc(Br)c3)nc1-2 | inconclusive [inhibitor, single point] | – |
| CCOc1ccc(CN2CCN(Cc3cccn3-c3cccnc3)CC2CCO)cc1 (configuration not stated) | inconclusive [inhibitor, single point] | – |
| NCCCC[C@@H]1NC(=O)[C@H](CCC(=O)O)NC(=O)c2cc([N+](=O)[O-])cc(I)c2OCC[C@@H](C(N)=O)NC1=O | inactive | – |
| CSc1nc2ccc(NC(=O)c3ccc(Cl)s3)cc2s1 | inconclusive [inhibitor, single point] | – |
| Cn1c(OCc2cccnc2)nc2c1c(=O)n(Cc1ccc(F)cc1)c(=O)n2C | active: 11.6 µM | – |
| CCOc1nc(-c2ccccc2)ccc1-c1noc(COc2ccccc2)n1 | inconclusive [inhibitor, single point] | – |
| Cc1cc(OCCn2ccnc2)cc(C)c1Cl | inconclusive [inhibitor, single point] | – |
| Cc1ccc(S(=O)(=O)Cn2nnnc2C(C(C)C)N2CCc3ccccc3C2)cc1 (configuration not stated) | inconclusive [inhibitor, single point] | – |
| CC1C(=O)C(C)C(c2ccc3c(c2)OCO3)NC1c1ccc2c(c1)OCO2 (configuration not stated) | inconclusive [inhibitor, single point] | – |
| CCOc1ccc(Nc2oc(/C=C/c3cccc(OC)c3)nc2C#N)cc1 | active: 23.1 µM | – |
